Laboratory results from the supplement of paper PMC10126150.
Sequences with one replicate were seen in a single cluster, so their values are uncertain.

Tested on: ATP
Assay: switch fluorescence ratio, 500 uM ATP over buffer (Cy3 cluster intensity, sum of 5 cycles each) (fold (ratio)); higher = stronger signal-on switching upon ATP binding; sequences stand for … in TCGTCGGCAGCGTCAGATGTGTATAAGAGACAGTTTTTTTTTTTTTTTTTTTTTTTTT…TC
Conditions: aptamer strand: ATP DNA aptamer (quencher-CACCTGGGGGAGTATTGCGGAGGAAGG + anchor), 100 nM annealed; ATP concentration: 500 uM; one replicate
How it was run: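 Switching-strand clusters labelled with Cy3 on a modified Illumina MiSeq flow-cell were annealed to 100 nM quencher-labelled ATP aptamer, imaged in selection buffer, and re-imaged after 15 min with 500 uM ATP at 22 °C. This was done over five cycles with NaOH stripping and re-annealing in between. The fluorescence ratio is summed target-cycle over summed buffer-cycle Cy3 intensity per cluster, averaged per switch-domain sequence, excluding clusters outside 100-1000 RFU.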
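Also: ATP exposure 15 min at 22 °C before imaging.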

Sequence | switch fluorescence ratio
ATACGGAGGA | 0.995
ATACGGG | 1.06
ATACGTAAG | 1.12
ATACGTCTTA | 0.998
ATACTAACTA | 1.08
ATACTAGATA | 1
ATACTATTCA | 1.06
ATACTCTCAG | 1
ATACTGAATC | 1.03
ATACTGGTGG | 1.03
ATACTTCCCC | 2.83
ATAGAAACGG | 1.11
ATAGACAGGA | 0.945
ATAGACTTCC | 1.07
ATAGAGAATA | 0.978
ATAGAGCTT | 1.01
ATAGAGGTGT | 1.12
ATAGATCTTG | 0.972
ATAGATGACA | 1.11
ATAGCAATC | 4.15
ATAGCACTGG | 1.12
ATAGCCATAG | 1.04
ATAGCCGGGC | 1.01
ATAGCCTCTT | 1.01
ATAGCGCGG | 0.985
ATAGCGCGT | 0.993

Sequence | switch fluorescence ratio
ATAGCGGCGT | 1.03
ATAGCGTCTG | 1.03
ATAGGCTTTT | 0.974
ATAGGGAGG | 0.977
ATAGGGGTGA | 0.984
ATAGGTCAGC | 0.994
ATAGGTCATG | 0.993
ATAGGTCGGT | 0.996
ATAGGTGTTA | 1.02
ATAGGTTAGC | 0.987
ATAGTAAAGA | 1.01
ATAGTAATGA | 0.977
ATAGTCAACG | 0.957
ATAGTCCTTG | 0.954
ATAGTCGACC | 0.969
ATAGTCTTAG | 1.02
ATAGTGCCAA | 1.01
ATAGTGTGCG | 0.995
ATAGTTCACC | 1
ATAGTTTCA | 1.04
ATAGTTTCGT | 1.02
ATAGTTTGGT | 1.02
ATATAATTGG | 1.05
ATATAGCCTT | 1.03
ATATAGGGTA | 1
ATATAGTGGT | 1.01

Sequence | switch fluorescence ratio
ATATATAAGA | 0.993
ATATATACTT | 0.982
ATATATCCAG | 1
ATATATGACA | 1
ATATATTCAG | 1.02
ATATCAATTG | 1.02
ATATCAGAG | 1.02
ATATCATGTA | 0.941
ATATCGACAA | 1.02
ATATCTATAA | 0.978
ATATCTGGTC | 0.904
ATATCTTCGA | 0.967
ATATGAAGG | 1.01
ATATGATACA | 1.05
ATATGCTTCC | 2.05
ATATGCTTGG | 1.02
ATATGGCAGG | 0.993
ATATGGGGCT | 0.998
ATATGTAAT | 0.983
ATATGTGCAA | 1.07
ATATTACTTG | 1.01
ATATTCAG | 1.02
ATATTGAATG | 0.995
ATATTGCGGA | 0.99
ATATTGCTGT | 1.02
ATATTGTGTT | 0.985

Sequence | switch fluorescence ratio
ATATTTGACC | 0.966
ATATTTTGGA | 1.03
ATCAAAATAG | 1.08
ATCAAATTTT | 0.977
ATCAACGGGG | 0.998
ATCAAGAATT | 1.01
ATCAATAGCC | 1.05
ATCAATGAAT | 0.947
ATCACCACCC | 1.25
ATCACGGCGG | 1.03
ATCACTAACA | 1.14
ATCAGCCAG | 1.01
ATCAGCGTCC | 1.03
ATCAGGATT | 1.02
ATCAGGCAAT | 1.85
ATCAGGGCCT | 0.99
ATCAGGGCGC | 1.08
ATCAGTAAGA | 0.985
ATCAGTTCAC | 1.01
ATCATACGCA | 1.98
ATCATAGCTT | 1.06
ATCATCCAGA | 0.976
ATCATCGGTG | 0.985
ATCATCTGTA | 1.02
ATCATGAAAC | 1
ATCATGCATG | 1.01

Sequence | switch fluorescence ratio
ATCATGCGC | 0.992
ATCATGGAAC | 1
ATCATGGAGC | 0.963
ATCATGTATG | 0.982
ATCATTACAA | 0.969
ATCATTGTGA | 1.03
ATCCAAGCT | 1.05
ATCCAGGGCT | 1.01
ATCCAGGTCC | 1.08
ATCCATGGGA | 0.997
ATCCCAGAGG | 1.09
ATCCCATCAT | 0.984
ATCCCCCTAG | 1.34
ATCCCCGTT | 1.05
ATCCGAATAG | 3.86
ATCCGATCT | 0.994
ATCCGCCTTC | 1.4
ATCCGTCAGC | 1.21
ATCCGTTCAC | 1.33
ATCCGTTGGG | 0.999
ATCCTCTGCT | 1.77
ATCCTGAATC | 1.05
ATCCTTACAG | 1.02
ATCCTTCCAG | 1.35
ATCCTTGGCG | 1
ATCGAAAGCA | 0.974

Sequence | switch fluorescence ratio
ATCGAAATCA | 1.03
ATCGAAATGA | 1.03
ATCGAACACC | 1.06
ATCGAGAAAG | 0.983
ATCGAGGAGA | 1.01
ATCGCCAAGT | 0.974
ATCGCGAATA | 1.07
ATCGCGACTT | 1.04
ATCGCGGTCT | 0.969
ATCGCGTCTT | 1.02
ATCGCGTTCG | 1
ATCGCTCTCC | 1.4
ATCGCTTACT | 1.28
ATCGCTTAG | 1.13
ATCGCTTCTC | 1.1
ATCGGAAATA | 1
ATCGGACGAG | 0.967
ATCGGCCGAA | 0.996
ATCGGCCGAC | 1
ATCGGGAGCT | 1.05
ATCGGGCTGG | 0.995
ATCGGGTGAG | 1.03
ATCGGTAGAA | 1.01
ATCGGTAGTG | 0.969
ATCGGTCTGA | 1.01
ATCGGTGTAC | 1.04

Sequence | switch fluorescence ratio
ATCGGTTGGC | 0.939
ATCGTACTTA | 1.1
ATCGTACTTC | 1.06
ATCGTAGCAT | 1.31
ATCGTATTAT | 1.01
ATCGTCCATT | 0.993
ATCGTCCCCG | 1.02
ATCGTCTATC | 1.01
ATCGTGTCGA | 0.999
ATCGTTTC | 0.999
ATCTAACACA | 0.989
ATCTAATATG | 1.14
ATCTAGGCGC | 0.954
ATCTAGTGAA | 0.984
ATCTATATGG | 0.938
ATCTATTTAC | 1.06
ATCTCACCAA | 1.15
ATCTCACTCT | 1.05
ATCTCCCTGT | 1.04
ATCTCGTCTG | 0.964
ATCTGAAGGC | 1.02
ATCTGCAGCC | 1.29
ATCTGCCTGA | 0.98
ATCTGGTCTC | 0.998
ATCTGGTGAT | 1
ATCTTATGGT | 0.96

Sequence | switch fluorescence ratio
ATCTTATGTA | 0.992
ATCTTCGATA | 1.02
ATCTTGAAAA | 0.998
ATCTTGGTTA | 1
ATGAAAGCAA | 1.84
ATGAAATCTA | 0.987
ATGAACGATG | 1.04
ATGAACGCTA | 1.92
ATGAAGCACC | 1.32
ATGAAGCGTG | 0.983
ATGAAGGGT | 1.02
ATGAAGGTCG | 1.02
ATGAAGTCT | 1.16
ATGAAGTGT | 0.97
ATGAATAGTA | 0.976
ATGAATATCC | 1
ATGAATGGC | 1.1
ATGAATTTCT | 0.987
ATGACAGGGC | 1.04
